Assay results reported in PubChem BioAssay (NCI).
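Grown in 96-well plates, cells were treated for 48 hours with each compound at five concentrations. Insufficient inhibition: endpoint recorded as highest concentration tested. Definition used: TGI = concentration required for complete inhibition of growth.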 Not every entry of the source has a single result; some have several. The other results are left out here. An entry can have further records. A record mostly stands for its own series of concentrations, which the source does not state; some values may only mark the edge of a range.

Columns and labels:
Test in all cases: inhibition of tumour cell growth, NCI panel, 48 h
SR leukemia = system: SR leukemia
CCRF-CEM leukemia = system: CCRF-CEM leukemia
OVCAR-8 ovarian = system: OVCAR-8 ovarian
MOLT-4 leukemia = system: MOLT-4 leukemia
IGROV1 ovarian = system: IGROV1 ovarian
SN12C renal = system: SN12C renal
SF-268 CNS = system: SF-268 CNS
SNB-19 CNS = system: SNB-19 CNS

COc1cc2cc(C(=O)N3C[C@@H](CCl)c4c3cc(OC(=O)N(CCC(=O)N3CCN(C)CC3)[C@H]3CCSSC3)c3ccccc43)[nH]c2c(OC)c1OC
TGI (SR leukemia): 25 µM and 595 nM
TGI (CCRF-CEM leukemia): 7.22 µM and > 100 µM
TGI (OVCAR-8 ovarian): 737 nM and 10 µM
TGI (MOLT-4 leukemia): 25 µM and 2.11 µM
TGI (IGROV1 ovarian): 1.29 µM and 13.1 µM
TGI (SN12C renal): 1.12 µM and 11.4 µM
TGI (SF-268 CNS): 25 µM and 676 nM
TGI (SNB-19 CNS): 2.96 µM and 37 µM
